85 compounds from ChEMBL document CHEMBL4888484, “Replenishing the malaria drug discovery pipeline: Screening and hit evaluation of the MMV Hit Generation Library 1 (HGL1) against asexual blood stage Plasmodium falciparum ,using a nano luciferase reporter read-out” (2022) can be followed below.

The campaign covered roughly 150,000 compounds. About 540 (0.36%) showed an effect of 50% or more. The list shows a part of the results.

The assay has as its system Plasmodium falciparum. Put plainly: Primary screen in NF54 nanoGlo assay, in single point, at 2uM, 72h; a lower Z score goes with more inhibition. The assay is classed as functional, Erythrocyte. Particulars: timepoint 72 hour.
For orientation: % Inhibition means the drop in the measured response relative to a control, in per cent. As to `CCN(CC)S(=O)(=O)c1ccc(N2CCOCC2)c(NC(=O)c2cc(S(=O)(=O)N3CCCCC3)ccc2Cl)c1`, the “% Inhibition” value stood at 4% and the Z score is given as -0.53.
With `Cn1cc(C(=O)N(Cc2ccccc2)Cc2ccccc2)cn1`, the “% Inhibition” value is given as -5% and the Z score came out at 0.68.
With `O=C(Nc1ccn2nccc2n1)[C@H]1CCCO1`, the “% Inhibition” value was -2% and the Z score amounted to 0.25.
As to `Cc1cccc2[nH]cc(CCNC(=O)C(=O)Nc3ccn(CCC(N)=O)n3)c12`, the “% Inhibition” value was determined as 5% and the Z score is on record as -0.59.
On to `COc1cc(=O)n2c(c1C(=O)N1CCCC[C@@H]1C)CCCCC2`, for which the “% Inhibition” value is -4% and the Z score was 0.46.
Turning to `CCOc1cc2c(cc1CN(C)Cc1cnn(C)c1C)CCC2`, the “% Inhibition” value was -12% and the Z score is 1.31.
In the case of `Cc1cc([C@H](C)NCc2noc(C)n2)c(C)o1`, the “% Inhibition” value is -2% and the Z score amounted to 0.31.
For `C#CCN(C)CCCNCc1cccc(C#N)c1` the same measures were 9% and -1.88.
For the compound `Cc1noc([C@@H]2CCCCN2S(=O)(=O)c2ccc(-c3c(C)noc3C)s2)n1`, the “% Inhibition” value is given as -13% and the Z score was determined as 1.49.
Turning to `O=c1c2cccc(F)c2ncn1C1CCS(=O)(=O)CC1`, the “% Inhibition” value was -13% and the Z score was 1.83.
On to `Cc1cccnc1CN1C[C@H](c2ccccc2)[C@H](C(=O)O)C1`, for which the “% Inhibition” value is listed as -5% and the Z score stood at 0.8.
For the compound `CC(C)c1nc([C@H]2CCCN(C(=O)c3ccc4c(n3)CCCC4)C2)no1`, the “% Inhibition” value is listed as -2% and the Z score stood at 0.29.
For `Cc1nn(-c2nc3ccccc3s2)c2c1[C@H]1[C@@H](C2)C1(C)C` the same measures were 2% and -0.4.
For `CN1C[C@H](c2ccc(Cl)cc2)C(C(=O)c2cccnc2)[C@]12C(=O)Nc1ccc(F)cc12` (stereo not given in full) the same measures were 4% and -0.58.
Turning to `Fc1ccc(-n2cc(-c3csc(-c4cnccn4)n3)nn2)cc1`, the “% Inhibition” value is given as -16% and the Z score amounted to 2.21.
In the same order, the values of `CS(=O)(=O)CC1(CNC(=O)c2ccc(Br)cn2)CC1` are 0% and 0.02.
For `CC(C)=CCN1C(=O)[C@@H]2CC[C@H]1CN(C(=O)CCc1cnn(C)c1)C2`, the “% Inhibition” value is -8% and the Z score stood at 1.46.
For `CCc1nsc(N2CCC[C@@H]3O[C@H](c4ccccc4)C[C@@H]32)n1`, the “% Inhibition” value was -10% and the Z score is reported as 1.34.
For `Cn1cccc1C(=O)C(=O)NCc1ccc(Cl)cc1` the same measures were 8% and -0.74.
In the same order, the values of `N#Cc1c2n(c(=O)n(Cc3ccccc3)c1=O)CCC2` are 12% and -1.35.
In the case of `Cc1cc(N2C[C@H](C)C(=O)NC2=O)c(C)cc1C(C)C`, the “% Inhibition” value was -1% and the Z score amounted to 0.18.
In the same order, the values of `O=C(OCC(=O)N1CCCCC1)c1cc(C2CC2)nc2ccccc12` are -7% and 0.72.
For `O=C(CCNc1ncc(Cl)cn1)N1CCCCC1` the same measures were -15% and 2.28.
For `O=C(c1ccccc1F)N(Cc1ccccc1Cl)[C@H]1CCS(=O)(=O)C1`, the “% Inhibition” value was -14% and the Z score is given as 1.27.
For the compound `O=C(c1ccn(CC(F)(F)F)n1)N1Cc2ccc(Br)cc2C1`, the “% Inhibition” value was -13% and the Z score was found to be 2.11.
For the compound `CCCCn1nnnc1NCc1cccn1C`, the “% Inhibition” value is reported as -4% and the Z score was 0.72.
In the same order, the values of `Cc1cc(-c2cc(-c3ccc[nH]3)nc(N)c2C#N)ccc1O` are -6% and 1.04.
As for `O=C(CCN(Cc1ccccc1)c1nc(-c2ccc(F)cc2)nc2ccccc12)N1CCOCC1`, the “% Inhibition” value amounted to 4% and the Z score is -0.78.
For `Cc1cc(O)c([C@H](c2ccccc2)N2CCC(C)CC2)c(=O)n1Cc1ccccn1`, the “% Inhibition” value worked out at 0% and the Z score is on record as 0.05.
With `COCCN1CCC(CN(Cc2ccncc2)C(=O)[C@H]2C[C@H]3C=C[C@@H]2C3)CC1`, the “% Inhibition” value is on record as -12% and the Z score came out at 1.35.
Regarding `O=C(COC(=O)c1cc(-c2ccc(-c3ccccc3)cc2)nc2ccccc12)Nc1ccccc1C(F)(F)F`, the “% Inhibition” value is on record as -13% and the Z score worked out at 2.5.
For `CC1CCN(C(=O)c2csc3c2CCCC3)CC1` the same measures were 7% and -1.16.
For `CCOCc1nc(C)cc(N2CCc3c(cnn3-c3ccccc3)C2)n1`, the “% Inhibition” value is -3% and the Z score is on record as 0.49.
For `O=C(Nc1cnn(C[C@H]2COc3ccccc3O2)c1)c1ccco1`, the “% Inhibition” value came to 14% and the Z score was -1.74.
For `Cc1cc(C(=O)NCc2ccco2)on1` the same measures were -8% and 1.27.
Take `O=C(CCC1CCCC1)Nc1nc(-c2ccc3c(c2)COC3)cs1`: the “% Inhibition” value is -7% and the Z score amounted to 0.7.
For `CCN(C(=O)c1nnn(C(C)C)c1C)[C@@H](CO)c1ccccc1`, the “% Inhibition” value is reported as -9% and the Z score stood at 1.82.
Consider `Cc1cccc(NC(=O)N2C3CCC2CC(O)C3)n1` (stereo not given), for which the “% Inhibition” value was -12% and the Z score was determined as 1.
For `COc1ccc(C(=O)N2CCCCCCN(C)C(=O)[C@@H]3CCC[C@@H]32)cn1`, the “% Inhibition” value is listed as -8% and the Z score worked out at 1.08.
With `C=CCc1cc(C(=O)NCC)ccc1OC`, the “% Inhibition” value is listed as -8% and the Z score is listed as 0.7.
On to `Cc1cnc(CCNC(=O)c2nn(-c3cccc(F)c3)cc2O)s1`, for which the “% Inhibition” value was found to be 1% and the Z score is given as -0.17.
With `CC1CN(c2ncc(S(N)(=O)=O)s2)C(C)C(C)O1` (stereo not given), the “% Inhibition” value is given as -1% and the Z score is reported as 0.22.
Regarding `Cc1ccc(S(=O)(=O)N2C(=O)CC[C@H]2C(=O)N2CCCCCC2)cc1C`, the “% Inhibition” value was -12% and the Z score stood at 1.58.
In the same order, the values of `C[C@@]1(CCc2ccc(OC(F)F)cc2)NC(=O)N(Cc2coc(-c3cccs3)n2)C1=O` are -10% and 1.87.
As for `Cc1nn(C(C)(C)C)cc1C(=O)NCC1(O)CCCCCC1`, the “% Inhibition” value is -6% and the Z score came to 0.86.
For `Cc1ccccc1NC(=O)Cc1nc(C)c(C(=O)NCc2ccccc2)s1`, the “% Inhibition” value is on record as 10% and the Z score is reported as -1.28.
For `Cc1nnc([C@H](C)S(=O)(=O)CCCC(C)C)o1` the same measures were 2% and -0.24.
In the same order, the values of `CCc1noc(C)c1COc1cccc2c1[C@@H](O)CC(C)(C)O2` are -13% and 1.57.
Turning to `CCN(C(=O)c1cccc(CNc2ccncn2)c1)C1CCCCC1`, the “% Inhibition” value is -13% and the Z score stood at 2.01.
In the same order, the values of `Cc1ccc(C)c(S(=O)(=O)Nc2cc(NC(=O)c3cnoc3C)ccc2Cl)c1` are 16% and -2.12.
Regarding `NC(=O)[C@@H]1CC(C(=O)Nc2cc[nH]n2)=NN1c1ccccc1`, the “% Inhibition” value is listed as -9% and the Z score came to 0.84.
Consider `CC(C)c1ccc(C#N)c(NC[C@H](O)CN(C)C)n1`, for which the “% Inhibition” value is -9% and the Z score worked out at 1.75.
Take `COC(=O)C(C)C(NCC(N)=O)c1ccccc1` (stereo not given): the “% Inhibition” value stood at 9% and the Z score was -1.2.
In the same order, the values of `CCc1ccc(C(=O)CCC(=O)N[C@@H](C)CS(C)(=O)=O)cc1` are -11% and 0.94.
Take `Cn1ncc2c(=O)[nH]c(CN3CCN(c4ccc(O)cc4)CC3)nc21`: the “% Inhibition” value is reported as -3% and the Z score amounted to 0.66.
In the same order, the values of `CC(=O)c1ccc(S(=O)(=O)N2CCOc3ccc(C(=O)N4CCOCC4)cc3C2)cc1` are 1% and -0.17.
On to `COc1cccn2ncc(C(=O)N3CCO[C@H]4CCC[C@H]43)c12`, for which the “% Inhibition” value was -8% and the Z score was determined as 1.34.
As to `COc1ccc(N2C(=O)CN(Cc3ccc4c(c3)OCO4)[C@H]3CS(=O)(=O)C[C@H]32)cc1Cl`, the “% Inhibition” value is reported as -1% and the Z score turned out to be 0.17.
On to `CCCn1nc(C2CCOCC2)nc1-c1ccnc(NC)c1`, for which the “% Inhibition” value is on record as -25% and the Z score is recorded as 3.81.
For the compound `COC(=O)c1ccc(O)c(NC(=O)c2cc3n(n2)CCO3)c1`, the “% Inhibition” value is listed as -33% and the Z score is given as 6.02.
Consider `CN(Cc1noc(C2CC2)n1)[C@H]1CCc2ccccc2C1`, for which the “% Inhibition” value was found to be 0% and the Z score was 0.02.
In the case of `CC(C)c1ccc(S(=O)(=O)c2c(C(=O)N3CCCCC3)cnc3ccc(F)cc23)cc1`, the “% Inhibition” value was -16% and the Z score is recorded as 1.52.
As to `Cc1csc([C@@H](C)CNC(=O)c2cc(=O)cc(C)n2C)n1`, the “% Inhibition” value is -13% and the Z score was determined as 1.65.
For `CCc1nnc2n1C[C@@H](CNCc1ccc3c(c1)CCO3)CC2` the same measures were -9% and 1.33.
Take `CCc1ccccc1C(N)CNC(=O)N1CCCC(C2CCCCO2)C1` (stereo not given): the “% Inhibition” value was -3% and the Z score came to 0.29.
For `COc1ccc(S(=O)(=O)Cc2nnnn2-c2ccccc2)cc1`, the “% Inhibition” value is -3% and the Z score is given as 0.4.
As for `CCN(Cc1nc2ccccc2c(=O)[nH]1)C(=O)c1cccc(-n2cnnn2)c1`, the “% Inhibition” value was -4% and the Z score is 0.42.
On to `NC12CCCC1CN(C(=O)Cc1cccc(C(F)(F)F)n1)C2` (stereo not given), for which the “% Inhibition” value is 3% and the Z score is -0.57.
In the case of `Cc1nn(Cc2cc(-c3ccccc3)on2)c(=O)c(C#N)c1C`, the “% Inhibition” value is given as -6% and the Z score worked out at 0.83.
Regarding `Cc1ccc(-c2nc(-c3ccc(C(=O)NCc4ccc(OC(C)C)cc4)s3)no2)cc1`, the “% Inhibition” value is reported as -11% and the Z score was determined as 1.44.
For `CCN(CC)[C@@]1(c2nnnn2C2CCCC2)CCN(C(=O)C2CCC2)C1` the same measures were -9% and 1.23.
As to `CCOc1ccccc1CN1CCN(CC2CC2)[C@@H]2CS(=O)(=O)C[C@@H]21`, the “% Inhibition” value is listed as -7% and the Z score is listed as 1.28.
Take `CC(C)(C)OC(=O)N1C[C@H](NCc2ccco2)C2(CCOCC2)C1`: the “% Inhibition” value was determined as 0% and the Z score is recorded as 0.02.
In the same order, the values of `C[C@H](Nc1nc(N(C)C)nc2ccccc12)c1ccccc1` are -5% and 0.67.
For `O=C(O)C1CCC(Nc2ccc(N3CCCCC3)cn2)CC1` (stereo not given) the same measures were -8% and 1.02.
With `Fc1ccc(OCc2csc(-c3ncccn3)n2)c(F)c1`, the “% Inhibition” value came to 3% and the Z score is given as -0.51.
In the same order, the values of `C=CCCC(=O)NCCCn1ccc2cccnc21` are -13% and 1.94.
Consider `O=C(Cn1cncn1)N[C@@H](Cc1ccc(Cl)cc1)c1ccccc1`, for which the “% Inhibition” value is -10% and the Z score came to 0.89.
`CCO[C@H]1OCCn2c1c(Br)c(=O)n(C)c2=O`: the “% Inhibition” value is 32% and the Z score was -4.14.
In the same order, the values of `O=C(c1ccccc1-n1cnnc1)N(Cc1ccccn1)C1CCCCC1` are 0% and 0.02.
As for `Cn1cccc(C(=O)N2C3CCC2CC(F)C3)c1=O` (stereo not given), the “% Inhibition” value is on record as -6% and the Z score is 0.94.
As for `CC(C)(C)C(=O)NCCn1ccn2nccc12`, the “% Inhibition” value was -12% and the Z score worked out at 1.55.
In the same order, the values of `COc1ccc(C(=O)N2CC[C@H](n3cnc4ccccc43)C2)c(C)c1` are -16% and 2.16.
Regarding `O=C1N(c2cccc(F)c2)c2ncccc2S(=O)(=O)N1Cc1cccc(F)c1`, the “% Inhibition” value is reported as -21% and the Z score worked out at 2.08.
For `CCN(CCOc1cccc(Cl)c1)C(=O)c1cc(C)nn1C` the same measures were -1% and 0.09.
